The structures appear in SMILES notation. Hit rate of the full screen: of about 48,000 compounds, about 550 (1.1%) were called active. Another 4% or so got no clear call; they are omitted. No stated cut-off is given here; in the data, active means potency below about 15 µM; inconclusive means mostly about 16 µM to 33 µM; inactive means weaker than that. The list shows a part of the results.
Potency means the concentration at half of the fitted maximal effect.

This test has as its target Lysosomal acid glucosylceramidase (Homo sapiens) (UniProt P04062). The experiment in a line: Glucocerebrosidase.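 Further: the screen sought inhibitors.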 To be noted: purified enzyme, resorufin glucoside fluorescence (screen aimed at inhibitors), 20 min. Put shortly: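 Normal human glucocerebrosidase (0.2 nM final) was assayed with resorufin β-D-glucopyranoside (30 uM final) in 50mM citric acid/KH2PO4, 10mM sodium taurocholate, 0.01% tween-20, pH 5.9. Compounds were titrated; fluorescence (Ex 548, Em 600) read after 20 min at RT.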
Chain of UniProt P04062 (P04062 whole entry, looked up): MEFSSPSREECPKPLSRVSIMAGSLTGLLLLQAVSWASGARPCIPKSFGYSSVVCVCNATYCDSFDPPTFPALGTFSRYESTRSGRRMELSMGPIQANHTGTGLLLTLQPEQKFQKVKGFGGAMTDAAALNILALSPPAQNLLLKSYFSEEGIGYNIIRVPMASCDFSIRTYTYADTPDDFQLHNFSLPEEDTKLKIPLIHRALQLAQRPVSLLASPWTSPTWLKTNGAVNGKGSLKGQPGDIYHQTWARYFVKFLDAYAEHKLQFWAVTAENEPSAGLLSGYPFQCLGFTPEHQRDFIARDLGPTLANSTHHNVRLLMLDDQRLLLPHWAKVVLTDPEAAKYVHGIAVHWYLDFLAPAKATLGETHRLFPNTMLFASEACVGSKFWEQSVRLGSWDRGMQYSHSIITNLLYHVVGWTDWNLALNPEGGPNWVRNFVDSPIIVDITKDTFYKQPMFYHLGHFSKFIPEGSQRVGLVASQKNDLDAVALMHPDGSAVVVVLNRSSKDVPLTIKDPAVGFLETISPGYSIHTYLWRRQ
As for `O=C(Nc1c2c(nn1-c1ccc(F)cc1)CS(=O)(=O)C2)C12CC3CC(CC(C3)C1)C2`, the Potency is inactive: > 76.9 µM. As for `COc1nc(OC)nc(N2CCC(C(=O)NCC3CCCCC3)CC2)n1`, the Potency is inactive: > 76.9 µM. `CC1(C)CC(=O)c2cc(C(=O)NC3CCSC3=O)c(=O)n(-c3ccccc3)c2C1` (centres undefined): the Potency is inactive: > 76.9 µM. Consider `CNC(=O)c1nnn(Cc2ccccc2)c1NC(=O)C(F)(F)F`, for which the Potency was inactive: > 76.9 µM. For the compound `O=C(CCCn1c(SCC(=O)NC2CCCC2)nc2ccccc2c1=O)NCC1CCCO1` (centres undefined), the Potency was inactive: > 76.9 µM.

Turning to `C=CCN(c1ccc(C(=O)N2CCCC2)cc1)S(C)(=O)=O`, the Potency is inactive: > 76.9 µM. Regarding `[O-][N+]1=c2ccc(Nc3ccccc3)cc2=NC12CCCCC2`, the Potency was inactive: > 76.9 µM. As to `CCN(CC(=O)N1CCCCCC1)S(=O)(=O)c1ccc(Cl)cc1`, the Potency is inactive: > 76.9 µM. The same measure for `CCCOP(=O)(c1ccc(N(C)C)cc1)C(O)c1ccccc1OC` (centres undefined): inactive: > 76.9 µM; for `O=C(CCCN1C(=O)c2ccccc2C1=O)N1CCN(c2ccccn2)CC1`: inactive: > 76.9 µM. For the compound `COc1ccc(Cn2c(C)nc3oc4cc(OC)ccc4c(=O)c3c2=O)cc1`, the Potency is inactive: > 76.9 µM. Next, `COC(=O)c1ccccc1NC(=O)C1CCCCC1C(=O)O` (centres undefined): inactive: > 76.9 µM.

As for `Cn1cccc1C(=O)OCC(=O)Nc1cc(C(C)(C)C)nn1-c1ccccc1`, the Potency was inactive: > 76.9 µM. Regarding `COCc1c(Br)c(C)nc(OCC(=O)O)c1C#N`, the Potency was inactive: > 76.9 µM.

For `CCCn1nnc(NC(=O)c2cccc(OCC(C)C)c2)n1`, the Potency was inactive: > 76.9 µM. Turning to `CCOc1ccc(-n2c(SCC(=O)Nc3ccc(OC)cc3OC)nc3c(c2=O)SCC3)cc1`, the Potency was inactive: > 76.9 µM. Take `CCSc1nc2nc(C)cc(C)n2n1`: the Potency was inactive: > 76.9 µM. The same measure for `CN1c2ccccc2C(C)(C)C12CCCC(=O)N2` (centres undefined): inactive: > 76.9 µM.

Regarding `O=C(CN1C(=O)c2cccc3cccc1c23)N1CCN(c2cccc(Cl)c2)CC1`, the Potency is inactive: > 76.9 µM. For `O=S(=O)(c1ccc(F)cc1)N1CN(Cc2ccco2)c2nc3ccccc3nc21`, the Potency was inactive: > 76.9 µM.

With `CCc1ccc(NC(=O)CCn2c(=O)oc3ccccc32)cc1`, the Potency was inactive: > 76.9 µM. Consider `CC1CN(c2nc3c(c(=O)n(C)c(=O)n3C)n2Cc2c(Cl)cccc2Cl)CC(C)O1` (centres undefined), for which the Potency is inactive: > 76.9 µM. Turning to `CCOC(=O)c1c(C)[nH]c(C(=O)CSc2nnnn2-c2ccc(C)cc2)c1C`, the Potency was inactive: > 76.9 µM.

On to `O=S(=O)(NCc1ccc2c(c1)OCO2)c1ccc2c(c1)oc1ccccc12`, for which the Potency was inactive: > 76.9 µM.

Values taken from PubChem BioAssay AID360 (National Center for Advancing Translational Sciences (NCATS), 2006).
